Here are results for 5 compounds from the CheMixHub viscosity set.

Each structure is given as a SMILES string. ± gives the uncertainty stated by the source. For part of its entries the source gives two or more results. The other results are left out here. An entry can have further records. The values listed for one entry are repeated measurements in other runs, samples, wells, individuals or studies. Marks in square brackets tell the records apart. The letters are not those of the source and start again with each entry. Marks such as (2×) give the number of equal values in this list.

Consider `COc1ccccc1`, for which the viscosity reads like this: (293.15 K, 101 kPa) 1.071 ± 0.051 mPa·s [study A] and 1.07 ± 0.04 mPa·s [study B] and 1.07 ± 0.022 mPa·s [study C] and 1.28 ± 0.03 mPa·s [study D]; (298.15 K, 101.33 kPa) 0.986 ± 0.027 mPa·s [study A] and 1.002 ± 0.026 mPa·s [study B] and 0.917 ± 0.023 mPa·s [study C] and 1.085 ± 0.057 mPa·s [study D]; (303.15 K, 101 kPa) 0.923 ± 0.019 mPa·s [study A] and 0.92 ± 0.04 mPa·s [study B] and 0.906 ± 0.019 mPa·s [study C] and 1.04 ± 0.03 mPa·s [study D] and 0.907 ± 0.024 mPa·s [study E] and 0.9196 ± 0.009 mPa·s [study F]; (303.15 K, 101.33 kPa) 0.9315 ± 0.025 mPa·s [study A] and 0.848 ± 0.022 mPa·s [study B] and 0.941 ± 0.008 mPa·s [study C] and 0.908 ± 0.03 mPa·s [study D] and 0.908 ± 0.011 mPa·s, 0.905 ± 0.011 mPa·s [study E] and 0.915 ± 0.011 mPa·s [study F]; (308.15 K, 101.33 kPa) 0.851 ± 0.023 mPa·s [study A] and 0.8896 ± 0.024 mPa·s [study B] and 0.788 ± 0.02 mPa·s [study C] and 0.874 ± 0.008 mPa·s [study D]; (313.15 K, 101 kPa) 0.764 ± 0.018 mPa·s [study A] and 0.784 ± 0.05 mPa·s [study B] and 0.795 ± 0.039 mPa·s [study C] and 0.784 ± 0.016 mPa·s [study D] and 0.87 ± 0.02 mPa·s [study E] and 0.806 ± 0.02 mPa·s [study F] and 0.7814 ± 0.02 mPa·s [study G] and 0.7926 ± 0.0082 mPa·s [study H]. The viscosity (313.15 K, 101.33 kPa) is 0.7977 ± 0.021 mPa·s [study A] and 0.786 ± 0.026 mPa·s [study B] and 0.786 ± 0.01 mPa·s [study C] and 0.793 ± 0.009 mPa·s [study D].

`Cc1ccccc1`: the viscosity by setting is: (293.15 K, 101 kPa) 0.5939 ± 0.0059 mPa·s [study A] and 0.584 ± 0.01 mPa·s [study B] and 0.586 ± 0.016 mPa·s [study C] and 0.5861 ± 0.015 mPa·s [study D]; (303.15 K, 101 kPa) 0.529 ± 0.014 mPa·s, 0.524 ± 0.01 mPa·s, 0.531 ± 0.004 mPa·s, 0.521 ± 0.005 mPa·s, 0.5243 ± 0.014 mPa·s, 0.521 ± 0.014 mPa·s, 0.609 ± 0.004 mPa·s, 0.5236 ± 0.014 mPa·s, 0.5275 ± 0.15 mPa·s, 0.517 ± 0.031 mPa·s, 0.539 ± 0.015 mPa·s, 0.524 ± 0.007 mPa·s, 0.527 ± 0.0055 mPa·s [several studies]; (303.15 K, 101.33 kPa) 0.538 ± 0.014 mPa·s [study A] and 0.521 ± 0.004 mPa·s [study B] and 0.479 ± 0.014 mPa·s [study C] and 0.5211 ± 0.029 mPa·s [study D]; (308.15 K, 101 kPa) 0.486 ± 0.004 mPa·s, 0.501 ± 0.009 mPa·s, 0.5001 ± 0.013 mPa·s, 0.583 ± 0.004 mPa·s, 0.5068 ± 0.0053 mPa·s, 0.5011 ± 0.14 mPa·s, 0.5 ± 0.01 mPa·s, 0.4923 ± 0.011 mPa·s, 0.5128 ± 0.0066 mPa·s, 0.4999 ± 0.0066 mPa·s, 0.5118 ± 0.0066 mPa·s, 0.492 ± 0.007 mPa·s, 0.498 ± 0.036 mPa·s [several studies]; (308.15 K, 101.33 kPa) 0.5011 ± 0.0064 mPa·s [study A] and 0.5248 ± 0.0071 mPa·s [study B] and 0.492 ± 0.014 mPa·s [study C] and 0.453 ± 0.013 mPa·s [study D] and 0.498 ± 0.004 mPa·s [study E]; (318.15 K, 101 kPa) 0.4939 ± 0.013 mPa·s, 0.538 ± 0.004 mPa·s, 0.4508 ± 0.017 mPa·s, 0.4524 ± 0.13 mPa·s, 0.45 ± 0.01 mPa·s, 0.462 ± 0.0062 mPa·s, 0.4447 ± 0.0052 mPa·s, 0.3759 ± 0.038 mPa·s, 0.448 ± 0.009 mPa·s [several studies].

As for `CC(C)=O`, the viscosity (293.15 K, 101 kPa) is 0.3298 ± 0.0089 mPa·s [study A] and 0.323 ± 0.004 mPa·s [study B] and 0.3417 ± 0.0092 mPa·s [study C] and 0.321 ± 0.004 mPa·s [study D] and 0.326 ± 0.007 mPa·s [study E] and 0.324 ± 0.004 mPa·s [study F] and 0.3194 ± 0.0086 mPa·s [study G]; the viscosity (298.15 K, 101 kPa) is 0.3065 ± 0.0083 mPa·s, 0.3047 ± 0.0039 mPa·s, 0.3172 ± 0.0086 mPa·s, 0.31 ± 0.004 mPa·s, 0.3075 ± 0.0035 mPa·s, 0.316 ± 0.011 mPa·s, 0.3045 ± 0.0083 mPa·s, 0.305 ± 0.008 mPa·s, 0.3125 ± 0.0029 mPa·s, 0.311 ± 0.004 mPa·s, 0.309 ± 0.019 mPa·s, 0.277 ± 0.0048 mPa·s, 0.319 ± 0.004 mPa·s, 0.3332 ± 0.02 mPa·s, 0.3214 ± 0.0037 mPa·s, 0.308 ± 0.004 mPa·s [several studies]; the viscosity (303.15 K, 101 kPa) is 0.27 ± 0.003 mPa·s, 0.33 ± 0.009 mPa·s, 0.3033 ± 0.0082 mPa·s, 0.303 ± 0.007 mPa·s, 0.293 ± 0.019 mPa·s, 0.2907 ± 0.0079 mPa·s, 0.299 ± 0.004 mPa·s, 0.294 ± 0.0034 mPa·s, 0.2633 ± 0.0047 mPa·s, 0.301 ± 0.017 mPa·s [several studies]; the viscosity (308.15 K, 101 kPa) is 0.281 ± 0.016 mPa·s [study A] and 0.2982 ± 0.0035 mPa·s [study B] and 0.25 ± 0.0047 mPa·s [study C] and 0.2907 ± 0.0079 mPa·s [study D] and 0.3097 ± 0.02 mPa·s [study E] and 0.288 ± 0.003 mPa·s [study F] and 0.28 ± 0.019 mPa·s [study G] and 0.2809 ± 0.0047 mPa·s [study H]; the viscosity (323.15 K, 101 kPa) was 0.2639 ± 0.0032 mPa·s [study A] and 0.2547 ± 0.007 mPa·s [study B] and 0.2725 ± 0.018 mPa·s [study C] and 0.276 ± 0.007 mPa·s [study D] and 0.248 ± 0.003 mPa·s [study E].

As for `C1CCOC1`, the viscosity (303.15 K, 101 kPa) is 0.4683 ± 0.014 mPa·s [study A] and 0.454 ± 0.012 mPa·s [study B] and 0.448 ± 0.018 mPa·s [study C] and 0.4331 ± 0.0053 mPa·s [study D] and 0.476 ± 0.01 mPa·s [study E] and 0.4656 ± 0.004 mPa·s [study F] and 0.459 ± 0.011 mPa·s [study G] and 0.5 ± 0.05 mPa·s [study H].

For `CC1COC(=O)O1` (stereo not given), the viscosity is, setting by setting: (298.15 K, 101.3 kPa) 2.476 ± 0.052 mPa·s [study A] and 2.512 ± 0.1 mPa·s [study B] and 2.527 ± 0.022 mPa·s [study C] and 2.55 ± 0.032 mPa·s [study D]; (298.15 K, 101.33 kPa) 2.471 ± 0.031 mPa·s, 2.471 ± 0.11 mPa·s, 2.493 ± 0.039 mPa·s, 2.471 ± 0.019 mPa·s, 2.493 ± 0.019 mPa·s, 2.493 ± 0.028 mPa·s (2×), 2.508 ± 0.016 mPa·s, 2.512 ± 0.04 mPa·s [several studies]; (308.15 K, 101 kPa) 2.09 ± 0.031 mPa·s [study A] and 2.042 ± 0.063 mPa·s [study B] and 1.975 ± 0.12 mPa·s [study C] and 2.11 ± 0.02 mPa·s [study D] and 2.14 ± 0.02 mPa·s [study E]; (308.15 K, 101.33 kPa) 2.048 ± 0.095 mPa·s [study A] and 2.048 ± 0.026 mPa·s [study B] and 2.048 ± 0.016 mPa·s [study C] and 2.041 ± 0.024 mPa·s [study D] and 2.086 ± 0.038 mPa·s [study E] and 2.041 ± 0.024 mPa·s [study F]; (313.15 K, 101 kPa) 1.918 ± 0.029 mPa·s [study A] and 1.873 ± 0.062 mPa·s [study B] and 1.793 ± 0.11 mPa·s [study C] and 2 ± 0.02 mPa·s [study D]; (318.15 K, 101.33 kPa) 1.723 ± 0.081 mPa·s [study A] and 1.723 ± 0.022 mPa·s [study B] and 1.724 ± 0.013 mPa·s, 1.723 ± 0.013 mPa·s [study C] and 1.718 ± 0.02 mPa·s [study D] and 1.718 ± 0.02 mPa·s [study E].

In general, viscosity refers to the resistance of a fluid to flow. A higher viscosity goes with a thick fluid.
